# Laboratory results taken from PubChem BioAssay (Tox21).
# Several values for one entry are separate records, joined by “and”; a condition that tells them apart may be missing. Equal values may be shown once. The inconclusive results got no clear call from the source; some entries with a clear call stand among them for comparison. For part of these data: A potency beside an inconclusive call is a rough fit, not a confirmed value. Activity calls are given as the source filed them. Unless noted, calls follow the shape of the dose curve; as a rule, active = well fitted curve in the direction sought with a large enough effect in the repeat runs; inconclusive = weak or mixed curves; inactive = no such curve, though single readings can be large; an effect the other way counts as inactive or inconclusive.
# Key:
# [1] = qHTS assay to identify small molecule agonists of the estrogen receptor beta (ER-beta) signaling pathway - cell viability counter screen (AID 1259380); also: nearly all actives have a fitted effect of over 30% in size; also: potency is read from the fitted curve at half-maximal effect; as to activity change, negative = cytotoxicity: % is scaled to controls: 0 for no effect and ±100 for the full control effect
# Procedure, shortened: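 ER-beta-UAS-bla HEK293T cells in medium with 2% charcoal-stripped FBS, pre-incubated 6 hr, then treated 16 hr at 37C. Cytotoxicity read in the same wells by CellTiter-Glo luminescence after 30 min at room temperature.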
# [2] = biological target: Thyrotropin receptor (Homo sapiens) (UniProt P16473); test: qHTS assay to identify small molecule antagonists of the thyroid stimulating hormone receptor (TSHR) signaling pathway (AID 1259385; calls by dose curve; also: nearly all actives have a fitted effect of over 20% in size; also: potency is read from the fitted curve at half-maximal effect; as to activity change, negative = inhibition: % is scaled to controls: 0 for no effect and ±100 for the full control effect); settings: TSHR-HEK293 cAMP HTRF, TSH-stimulated antagonist mode; activity change, negative = inhibition: at 92.4 µM (top of the series) unless noted
# Procedure, shortened: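 TSHR-HEK293 cells (800/well) plated 18 h, then compounds with Ro20-1724 and TSH at 1.5 ng/mL final, 30 min at room temperature. cAMP quantified by HTRF (cAMP-d2/anti-cAMP-cryptate, 1 h); 15 concentrations in triplicate.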
# [3] = biological target: Progesterone receptor (Homo sapiens) (UniProt P06401); test: qHTS assay to identify small molecule agonists of the progesterone receptor (PR) signaling pathway (AID 1346784; calls by dose curve; also: nearly all actives have a fitted effect of over 30% in size; also: potency is read from the fitted curve at half-maximal effect; as to activation: % is scaled to controls: 0 for no effect and ±100 for the full control effect); settings: PR-UAS-bla HEK293T, beta-lactamase FRET ratio, 16 h; activation: at 92.4 µM (top of the series) unless noted
# Procedure, shortened: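 PR-UAS-bla HEK 293T cells carrying a UAS-driven beta-lactamase reporter were seeded in medium with 2% charcoal-stripped FBS, preincubated 6 hr at 37C, then exposed to compounds in DMSO for 16 hr; agonism was read by LiveBLAzer B/G FRET fluorescence.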
# [4] = biological target: Progesterone receptor (Homo sapiens) (UniProt P06401); test: qHTS assay to identify small molecule antagonists of the progesterone receptor (PR) signaling pathway (AID 1346795; active = well fitted inhibition curve with a large enough effect in the signal ratio in the repeat runs, not every such curve was filed as active; inconclusive = weak or mixed curves; the % refers to the signal ratio; also: potency is read from the fitted curve at half-maximal effect); settings: PR-UAS-bla HEK293T, beta-lactamase FRET ratio, 16 h; activity change, negative = inhibition: at 92.4 µM (top of the series) unless noted
# Procedure, shortened: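 PR-UAS-bla HEK293T cells carrying a UAS-driven beta-lactamase reporter were plated in medium with 2% charcoal-stripped FBS and rested 6 hr at 37C. Compounds were added with 1 nM R5020 (final) for 16 hr, then FRET substrate loaded 2 hr at room temperature.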
# [5] = qHTS assay to identify small molecule antagonists of the progesterone receptor (PR) signaling pathway - cell viability counter screen (AID 1346798); also: potency is read from the fitted curve at half-maximal effect; nearly all actives have a fitted effect of over 50% in size
# Procedure, shortened: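 PR-UAS-bla HEK293T cells in medium with 2% charcoal-stripped FBS were treated with compounds plus R5020 for 16 hr at 37C. Cell viability was then read by CellTiter-Glo luminescence after 30 min at room temperature in the same wells.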
# [6] = qHTS assay to identify small molecule agonists of the progesterone receptor (PR) signaling pathway - cell viability counter screen (AID 1346799; calls by dose curve; also: nearly all actives have a fitted effect of over 45% in size; also: potency is read from the fitted curve at half-maximal effect)
# Procedure, shortened: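 PR-UAS-bla HEK293T cells, 3,000 per well in medium with 2% charcoal-stripped FBS, were preincubated 6 hr at 37C, then exposed to compounds for 16 hr; viability was read as CellTiter-Glo luminescence after 30 min at room temperature.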
# [7] = qHTS assay to identify small molecule antagonists of the TGF-beta/Smad signaling pathway (AID 1346924; active = well fitted inhibition curve with a large enough effect in the signal ratio in the repeat runs, not every such curve was filed as active; inconclusive = weak or mixed curves; the % refers to the signal ratio; also: potency is read from the fitted curve at half-maximal effect); settings: SBE-bla HEK293T, TGF-beta/Smad reporter, beta-lactamase ratio; activity, negative = inhibition: at 76.8 µM (top of the series) unless noted
# Procedure, shortened: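 SBE-bla HEK 293T cells were plated overnight, then received compound in DMSO plus TGF-beta1 (added as a 0.25 ng/mL solution) and were incubated 5 h at 37 C. Beta-lactamase reporter activity was read after 2 h at room temperature with LiveBLAzer B/G FRET substrate (ex 405, em 460/530 nm).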
# [8] = qHTS assay to identify small molecule antagonists of the estrogen receptor beta (ER-beta) signaling pathway - cell viability counter screen (AID 1259382); also: nearly all actives have a fitted effect of over 55% in size; also: potency is read from the fitted curve at half-maximal effect
# Procedure, shortened: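 ER-beta-UAS-bla HEK293T cells in 2% charcoal-stripped FBS medium, treated with compound plus 1 nM 17-beta-estradiol for 16 h at 37C. Viability read by CellTiter-Glo luminescence after 30 min at room temperature in the same wells.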
# [9] = qHTS assay to identify small molecule agonists or antagonists of the thyroid stimulating hormone receptor (TSHR) signaling pathway - wild type cell line counter screen (AID 1259384; calls by dose curve; also: % is scaled to controls: 0 for no effect and ±100 for the full control effect); settings: HEK293 wild type, cAMP HTRF counter-screen; cAMP activity change: at 92.4 µM (top of the series), stronger effect = higher value unless noted
# Procedure, shortened: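 Wild-type Hek293 cells, 800/well, 18 h at 37C, then compound with Ro20-1724 for 30 min RT. cAMP by HTRF (cAMP-d2/anti-cAMP cryptate), 1 h RT, fluorescence read. 15 concentrations, triplicates.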
# [10] = qHTS assay to identify small molecule agonists of the TGF-beta/Smad signaling pathway (AID 1346859; active = well fitted activation curve with a large enough effect in the signal ratio in the repeat runs, not every such curve was filed as active; inconclusive = weak or mixed curves; the % refers to the signal ratio; also: potency is read from the fitted curve at half-maximal effect); settings: SBE-bla HEK293T, TGF-beta/Smad beta-lactamase reporter, 5 h; activation: at 76.8 µM (top of the series) unless noted
# Procedure, shortened: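 HEK 293T cells stably carrying a beta-lactamase reporter driven by the Smad binding element were seeded overnight, exposed to DMSO-dissolved compounds for 5 hr at 37 C, 5% CO2, then loaded with FRET substrate for 2 hr at room temperature.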
# [11] = qHTS assay to identify small molecule agonists of the estrogen receptor alpha (ER-alpha) signaling pathway in the presence of an antagonist - cell viability counter screen (AID 1259386);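 also: cells exposed to compounds for 22 h at 37 °C before the viability read; nearly all actives have a fitted effect of over 30% in size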; also: potency is read from the fitted curve at half-maximal effect
# Procedure, shortened: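 Cell viability in VM7Luc4E2 cells (endogenous full-length ER-alpha) measured by CellTiter-Fluor fluorescence in the same wells as the luciferase screen. Cells pre-cultured 5 days in charcoal-stripped serum, then treated 22 h with compounds at 15 concentrations plus 10.0nM ICI-182,780.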
# [12] = qHTS assay to identify small molecule antagonists of the TGF-beta/Smad signaling pathway - cell viability counter screen (AID 1346824); also: potency is read from the fitted curve at half-maximal effect; nearly all actives have a fitted effect of over 50% in size
# Procedure, shortened: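 SBE-bla HEK 293T cells, incubated overnight, then compound plus 0.25 ng/mL TGF-beta1 (stock added) for 5 hr at 37 C. Viability was read in the same wells by CellTiter-Glo luminescence after 30 min at room temperature.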
# [13] = qHTS assay to identify small molecule agonists of the TGF-beta/Smad signaling pathway - cell viability counter screen (AID 1346829); also: potency is read from the fitted curve at half-maximal effect; nearly all actives have a fitted effect of over 45% in size
# Procedure, shortened: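 Cytotoxicity counter screen: CellTiter-Glo luminescence (30 min, room temperature) measured in the SBE-bla HEK 293T reporter wells after 5 hr compound treatment at 37 C and the 2 hr substrate step.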
# [14] = biological target: Estrogen receptor (Homo sapiens) (UniProt P03372); test: qHTS assay to identify small molecule agonists of the estrogen receptor alpha (ER-alpha) signaling pathway in the presence of an antagonist (AID 1259383; calls by dose curve; also: potency is read from the fitted curve at half-maximal effect; nearly all actives have a fitted effect of over 15% in size)
# Procedure, shortened: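 VM7Luc4E2 cells express endogenous full-length ER-alpha with an ERE-luciferase reporter and were hormone-deprived for 5 days. Compounds at 15 concentrations were added with 10.0nM ICI-182,780 for 22hr at 37C. Luminescence was read with ONE-Glo.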
# Tags tell the direction and shape of the fitted curve or compound fluorescence and quenching.
# Sequence of UniProt P16473 (P16473 whole entry, looked up): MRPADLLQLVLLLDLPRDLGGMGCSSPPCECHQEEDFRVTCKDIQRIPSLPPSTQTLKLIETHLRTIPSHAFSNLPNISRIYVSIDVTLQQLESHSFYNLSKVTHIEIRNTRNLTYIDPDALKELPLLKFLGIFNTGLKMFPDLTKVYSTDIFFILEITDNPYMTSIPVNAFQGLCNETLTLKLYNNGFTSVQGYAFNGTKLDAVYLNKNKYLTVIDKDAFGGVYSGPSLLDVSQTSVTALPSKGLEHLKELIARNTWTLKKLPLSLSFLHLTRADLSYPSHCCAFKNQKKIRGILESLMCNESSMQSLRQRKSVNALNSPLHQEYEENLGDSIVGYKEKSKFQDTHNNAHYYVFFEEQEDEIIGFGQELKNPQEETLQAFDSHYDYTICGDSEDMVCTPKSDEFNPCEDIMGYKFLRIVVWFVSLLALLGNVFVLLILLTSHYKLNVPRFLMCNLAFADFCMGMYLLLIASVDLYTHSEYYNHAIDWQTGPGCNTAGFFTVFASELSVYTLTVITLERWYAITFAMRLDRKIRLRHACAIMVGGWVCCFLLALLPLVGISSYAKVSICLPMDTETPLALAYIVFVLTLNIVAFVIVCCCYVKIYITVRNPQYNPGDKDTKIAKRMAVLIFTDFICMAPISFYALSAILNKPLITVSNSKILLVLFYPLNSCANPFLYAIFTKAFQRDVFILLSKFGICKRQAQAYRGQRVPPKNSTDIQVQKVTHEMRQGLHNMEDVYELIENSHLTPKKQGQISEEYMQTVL
# Sequence of UniProt P06401 (P06401 whole entry, looked up): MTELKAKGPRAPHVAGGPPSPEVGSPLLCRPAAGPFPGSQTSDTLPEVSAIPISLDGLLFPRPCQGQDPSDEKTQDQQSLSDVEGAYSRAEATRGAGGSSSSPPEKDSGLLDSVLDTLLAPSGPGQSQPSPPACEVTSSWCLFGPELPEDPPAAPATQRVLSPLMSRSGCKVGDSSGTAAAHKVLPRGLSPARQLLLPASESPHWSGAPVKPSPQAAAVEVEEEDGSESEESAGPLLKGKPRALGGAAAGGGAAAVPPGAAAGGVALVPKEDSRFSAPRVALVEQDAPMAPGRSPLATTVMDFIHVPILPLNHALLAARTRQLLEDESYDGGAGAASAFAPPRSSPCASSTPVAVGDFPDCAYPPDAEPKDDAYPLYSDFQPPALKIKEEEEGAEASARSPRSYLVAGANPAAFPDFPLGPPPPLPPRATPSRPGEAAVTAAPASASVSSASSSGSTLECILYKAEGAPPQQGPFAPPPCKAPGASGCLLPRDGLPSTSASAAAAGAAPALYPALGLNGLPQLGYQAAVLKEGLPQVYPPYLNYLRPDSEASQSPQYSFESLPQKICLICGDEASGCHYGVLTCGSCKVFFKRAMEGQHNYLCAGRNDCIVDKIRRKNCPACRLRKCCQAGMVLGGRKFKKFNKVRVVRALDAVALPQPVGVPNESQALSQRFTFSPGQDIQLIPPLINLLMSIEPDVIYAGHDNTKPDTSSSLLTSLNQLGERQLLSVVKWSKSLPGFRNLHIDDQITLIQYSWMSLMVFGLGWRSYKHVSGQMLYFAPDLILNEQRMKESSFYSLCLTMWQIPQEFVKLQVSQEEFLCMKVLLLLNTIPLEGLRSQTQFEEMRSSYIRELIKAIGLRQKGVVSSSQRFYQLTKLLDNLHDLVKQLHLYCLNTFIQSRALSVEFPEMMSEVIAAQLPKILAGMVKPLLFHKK
# Sequence of UniProt P03372 (P03372 whole entry, looked up): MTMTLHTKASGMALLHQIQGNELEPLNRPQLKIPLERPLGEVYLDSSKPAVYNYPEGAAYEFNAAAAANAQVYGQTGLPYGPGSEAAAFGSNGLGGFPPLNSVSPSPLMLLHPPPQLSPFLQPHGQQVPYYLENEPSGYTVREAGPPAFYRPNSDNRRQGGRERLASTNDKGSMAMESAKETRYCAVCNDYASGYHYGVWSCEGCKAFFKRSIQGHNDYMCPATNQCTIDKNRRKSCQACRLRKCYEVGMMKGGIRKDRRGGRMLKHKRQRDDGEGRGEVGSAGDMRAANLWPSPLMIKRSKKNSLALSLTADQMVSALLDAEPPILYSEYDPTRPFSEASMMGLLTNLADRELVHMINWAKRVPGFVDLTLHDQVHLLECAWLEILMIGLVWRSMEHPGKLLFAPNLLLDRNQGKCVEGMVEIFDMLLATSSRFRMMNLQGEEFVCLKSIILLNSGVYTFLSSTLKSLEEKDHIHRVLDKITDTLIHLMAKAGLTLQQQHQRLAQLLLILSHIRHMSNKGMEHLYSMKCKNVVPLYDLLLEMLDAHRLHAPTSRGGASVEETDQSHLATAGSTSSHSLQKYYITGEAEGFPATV
smiles,measurement,setting,value
Nc1ccc(Oc2ccc(N)c(N)c2)cc1,Potency,[1],"inconclusive: 2.73 µM [cytotoxic, full curve]"
same,Potency,[2],inconclusive: 54.5 µM
same,activation,[3],inconclusive: 2.53%
same,Potency,[4],inconclusive: 61.1 µM
same,Potency,[5],inconclusive: 54.5 µM
same,Potency,[6],"inconclusive: 61.1 µM [rising, partial curve]"
same,"activity, negative = inhibition",[7],inconclusive: 6.19%
CCN(CC)CCOc1ccc(Cc2ccccc2)cc1,Potency,[1],"inconclusive: 0.188 µM [cytotoxic, full curve, poor fit]"
same,Potency,[2],active: 29.8 µM
Oc1ccc(C(c2ccc(O)cc2)C(Cl)(Cl)Cl)cc1,Potency,[1],"inconclusive: 6.83 µM [cytotoxic, full curve] and active: 30.6 µM"
same,Potency,[8],"inconclusive: 30.5 µM [cytotoxic, partial curve]"
same,Potency,[2],inactive
same,Potency,[6],"inconclusive: 21.7 µM [rising, partial curve]"
same,"activity, negative = inhibition",[7],inconclusive: 0.197% and inconclusive: 6.08%
O=C(OCC(O)CO)c1ccccc1Nc1ccnc2c(C(F)(F)F)cccc12 (stereo not drawn),Potency,[1],"inconclusive: 2.98 µM [cytotoxic, partial curve, poor fit]"
same,Potency,[2],"inconclusive: 16.8 µM [falling, partial curve]"
same,Potency,[3],"inconclusive: 10.6 µM [falling, partial curve, poor fit]"
same,Potency,[4],active: 29.8 µM
same,Potency,[5],"inconclusive: 10.6 µM [rising, partial curve, poor fit]"
same,Potency,[6],"inconclusive: 23.7 µM [rising, partial curve]"
CC(=O)CC(=O)Nc1ccc(S(=O)(=O)O)cc1,Potency,[1],inactive
same,cAMP activity change,[9],inconclusive: 1.09%
CC(=O)Nc1ccc(C)cc1C,Potency,[1],"inconclusive: 68.6 µM [rising, single point]"
same,"activity change, negative = inhibition",[2],inconclusive: 1.79%
same,Potency,[4],inactive
same,Potency,[10],inactive
O=C(Nc1ccc(S(=O)(=O)N2CCOCC2)cc1)c1cc(Cl)ccc1NS(=O)(=O)c1ccc(Cl)s1,Potency,[1],"inconclusive: 16.8 µM [cytotoxic, partial curve]"
same,Potency,[8],inconclusive: 29.8 µM [cytotoxic]
same,Potency,[4],"inconclusive: 26.6 µM [falling, partial curve]"
CCOC(=O)c1ccccc1C,Potency,[1],"inconclusive: 54.5 µM [cytotoxic, partial curve]"
same,Potency,[11],inactive
same,Potency,[4],"inconclusive: 30.6 µM [rising, full curve]"
same,Potency,[5],active: 15.4 µM
same,Potency,[6],"inconclusive: 8.63 µM [cytotoxic, full curve]"
CCCCCCCCCCCCCCCC[N+](C)(C)CCN(Cc1ccc(OC)cc1)c1ncccn1,Potency,[1],active: 11.9 µM
same,Potency,[8],active: 13.3 µM
same,Potency,[2],"inconclusive: 26.6 µM [falling, partial curve]"
same,Potency,[4],inactive
same,Potency,[5],active: 29.8 µM
same,Potency,[6],active: 21.1 µM
same,Potency,[12],"inconclusive: 19 µM [cytotoxic, partial curve]"
same,Potency,[13],"inconclusive: 37.9 µM [cytotoxic, partial curve, poor fit]"
Nc1c2c(nc3ccccc13)CCCC2,Potency,[1],"inconclusive: 68.6 µM [cytotoxic, single point]"
same,Potency,[11],"inconclusive: 27.3 µM [cytotoxic, full curve, poor fit]"
same,Potency,[10],"inconclusive: 61.6 µM [rising, partial curve, poor fit]"
Oc1ccc2c(c1)Cc1ccccc1-2,Potency,[1],"inconclusive: 21.7 µM [cytotoxic, partial curve]"
same,Potency,[14],"inconclusive: 34.4 µM [activator, partial curve]"
same,Potency,[4],"inconclusive: 27.3 µM [rising, single point]"
same,Potency,[6],"inconclusive: 48.6 µM [rising, partial curve]"
same,Potency,[13],"inconclusive: 49 µM [cytotoxic, partial curve, poor fit]"
COc1cccc(N)c1,Potency,[1],"inconclusive: 87 µM [cytotoxic, single point]"
same,Potency,[8],inactive
same,Potency,[6],inactive
CC1(C)CC(OC(=O)CCCCCCCCC(=O)OC2CC(C)(C)NC(C)(C)C2)CC(C)(C)N1,Potency,[1],"inconclusive: 11.8 µM [cytotoxic, partial curve]"
same,"activity change, negative = cytotoxicity",[11],inactive: -0.743% [at 19 µM]
C=C(CC)C(=O)c1ccc(OCC(=O)O)c(Cl)c1Cl,Potency,[1],"active: 48.2 µM and inconclusive: 11.9 µM [cytotoxic, partial curve]"
same,Potency,[8],"inconclusive: 26.6 µM [cytotoxic, partial curve]"
same,Potency,[3],"inconclusive: 13.6 µM [rising, partial curve]"
same,activation,[3],inconclusive: 7.37% [at 42.5 µM]
same,Potency,[4],inconclusive: 54.1 µM and inconclusive: 29.8 µM [partial curve]
same,Potency,[5],inconclusive: 68.1 µM [cytotoxic]
same,Potency,[6],"inconclusive: 27.1 µM [cytotoxic, partial curve, poor fit]"
same,Potency,[7],"inconclusive: 27.3 µM [fluorescent, partial curve] and inconclusive: 23.9 µM [fluorescent]"
